The other results are listed elsewhere or left out. The list includes weakly bound sequences.
Molecular target: T1, MBP-FoxP3dN (UniProt Q99JB6)
T1 sequence: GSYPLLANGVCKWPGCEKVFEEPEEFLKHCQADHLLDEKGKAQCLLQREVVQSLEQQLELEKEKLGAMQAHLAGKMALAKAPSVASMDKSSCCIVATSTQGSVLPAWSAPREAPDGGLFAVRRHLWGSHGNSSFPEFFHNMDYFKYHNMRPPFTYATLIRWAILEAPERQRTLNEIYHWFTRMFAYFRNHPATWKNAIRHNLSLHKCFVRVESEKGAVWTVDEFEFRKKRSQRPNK
Assay: PD-seq (MBP pull-down with sequencing)
Conditions: 20 mM Tris-HCl pH 7.5, 100 mM NaCl, 1.5 mM MgCl2, 0.4 uM protein, 0.1 uM dsDNA library, 30 min, room temperature, amylose pull-down; high values mean tight binding; double strand, one strand shown

Sequence	binding signal (RPM ratio (pull-down/input))
GATGATTGTTCTCCCAGCTGATGAATTAGGCAAGTCGAGTAAACAAATTTTCCTAATCTTTCTGTTCAAGCGCCATCTAC	1.19
GATGATTGTTCTCCCAGCTGATGAATTTCACGGTTCGAGTAAACAAATTTTCCTAATCTTTCTGTTCAAGCGCCATCTAC	0.309
GATGATTGTTCTCCCAGCTGATGAATTGATATATTCGAGTAAACAAATTTTCCTAATCTTTCTGTTCAAGCGCCATCTAC	0.951
GATGATTGTTCTCCCAGCTGATGAATTTAGCCATTCGAGTAAACAAATTTTCCTAATCTTTCTGTTCAAGCGCCATCTAC	4.73
GATGATTGTTCTCCCAGCTGATGAATTGCAGGGGTCGAGTAAACAAATTTTCCTAATCTTTCTGTTCAAGCGCCATCTAC	0.772
GATGATTGTTCTCCCAGCTGATGAATTCGGTGCATCGAGTAAACAAATTTTCCTAATCTTTCTGTTCAAGCGCCATCTAC	1.39
GATGATTGTTCTCCCAGCTGATGAATTCTAGTAATCGAGTAAACAAATTTTCCTAATCTTTCTGTTCAAGCGCCATCTAC	0.547
GATGATTGTTCTCCCAGCTGATGAATTGGGGCGCTCGAGTAAACAAATTTTCCTAATCTTTCTGTTCAAGCGCCATCTAC	0.419
GATGATTGTTCTCCCAGCTGATGAATTATTCGAGTCGAGTAAACAAATTTTCCTAATCTTTCTGTTCAAGCGCCATCTAC	0.319
GATGATTGTTCTCCCAGCTGATGAATTAACGCGGTCGAGTAAACAAATTTTCCTAATCTTTCTGTTCAAGCGCCATCTAC	0.438
GATGATTGTTCTCCCAGCTGATGAATTATGACATTCGAGTAAACAAATTTTCCTAATCTTTCTGTTCAAGCGCCATCTAC	2.11
GATGATTGTTCTCCCAGCTGATGAATTTAAGGTATCGAGTAAACAAATTTTCCTAATCTTTCTGTTCAAGCGCCATCTAC	0.6
GATGATTGTTCTCCCAGCTGATGAATTGTCTATTTCGAGTAAACAAATTTTCCTAATCTTTCTGTTCAAGCGCCATCTAC	1.18
GATGATTGTTCTCCCAGCTGATGAATTACTGGGGTCGAGTAAACAAATTTTCCTAATCTTTCTGTTCAAGCGCCATCTAC	0.231
GATGATTGTTCTCCCAGCTGATGAATTATCGGGCTCGAGTAAACAAATTTTCCTAATCTTTCTGTTCAAGCGCCATCTAC	0.244
GATGATTGTTCTCCCAGCTGATGAATTATAGCGCTCGAGTAAACAAATTTTCCTAATCTTTCTGTTCAAGCGCCATCTAC	0.581

Sequence	binding signal (RPM ratio (pull-down/input))
GATGATTGTTCTCCCAGCTGATGAATTCAACATGTCGAGTAAACAAATTTTCCTAATCTTTCTGTTCAAGCGCCATCTAC	0.528
GATGATTGTTCTCCCAGCTGATGAATTCATCTAATCGAGTAAACAAATTTTCCTAATCTTTCTGTTCAAGCGCCATCTAC	0.294
GATGATTGTTCTCCCAGCTGATGAATTATCGATATCGAGTAAACAAATTTTCCTAATCTTTCTGTTCAAGCGCCATCTAC	0.494
GATGATTGTTCTCCCAGCTGATGAATTGGTTAGATCGAGTAAACAAATTTTCCTAATCTTTCTGTTCAAGCGCCATCTAC	0.342
GATGATTGTTCTCCCAGCTGATGAATTGTATTTCTCGAGTAAACAAATTTTCCTAATCTTTCTGTTCAAGCGCCATCTAC	2.06
GATGATTGTTCTCCCAGCTGATGAATTATGTAATTCGAGTAAACAAATTTTCCTAATCTTTCTGTTCAAGCGCCATCTAC	3.03
GATGATTGTTCTCCCAGCTGATGAATTTCGATCATCGAGTAAACAAATTTTCCTAATCTTTCTGTTCAAGCGCCATCTAC	0.513
GATGATTGTTCTCCCAGCTGATGAATTAATCGACTCGAGTAAACAAATTTTCCTAATCTTTCTGTTCAAGCGCCATCTAC	0.362
GATGATTGTTCTCCCAGCTGATGAATTGGGAACTTCGAGTAAACAAATTTTCCTAATCTTTCTGTTCAAGCGCCATCTAC	0.252
GATGATTGTTCTCCCAGCTGATGAATTCTGCGCGTCGAGTAAACAAATTTTCCTAATCTTTCTGTTCAAGCGCCATCTAC	2.64
GATGATTGTTCTCCCAGCTGATGAATTCTGGAGCTCGAGTAAACAAATTTTCCTAATCTTTCTGTTCAAGCGCCATCTAC	0.188
GATGATTGTTCTCCCAGCTGATGAATTGTACCGGTCGAGTAAACAAATTTTCCTAATCTTTCTGTTCAAGCGCCATCTAC	0.355
GATGATTGTTCTCCCAGCTGATGAATTGACCGGGTCGAGTAAACAAATTTTCCTAATCTTTCTGTTCAAGCGCCATCTAC	0.205
GATGATTGTTCTCCCAGCTGATGAATTTGTGGAGTCGAGTAAACAAATTTTCCTAATCTTTCTGTTCAAGCGCCATCTAC	1.79
GATGATTGTTCTCCCAGCTGATGAATTTTAGGTATCGAGTAAACAAATTTTCCTAATCTTTCTGTTCAAGCGCCATCTAC	0.581

— publication PMC12820563
